Laboratory results: paper PMC12136788
The other results are listed elsewhere or left out.

T1: UNK ZnF1-3 (human, UniProt Q9C0B0 31-174)
T1 sequence: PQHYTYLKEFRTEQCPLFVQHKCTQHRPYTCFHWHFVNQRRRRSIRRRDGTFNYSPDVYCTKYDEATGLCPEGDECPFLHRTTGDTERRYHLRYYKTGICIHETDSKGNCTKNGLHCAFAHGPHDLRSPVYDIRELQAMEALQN

B1: chr6:24533737:24533738:+_ENSG00000112294_ENST00000357578|hu_hu|FALSE|FALSE (ssRNA)
RNA: GGGAGUUCUACAGUCCGACGAUCCAGCUGCUCUGCCACUCUCCAGAUCUGGGCUGGGUCUUGAGAGUAAAAAUAACCUGCUAACCCAACAUCAGCUGCGUUAGCGAUUGCUAUAGCCUCCUCCUCUGUAUCGAACUUGAUAACCAACAGAGGAUUGAGCAUCA
B2: 9263802_9275557_6032_CDS_ENSG00000101745_ENST00000400020|human|control|control (ssRNA)
RNA: GGGAGUUCUACAGUCCGACGAUCCAAAACUUCUUGUUCGUUGGAUACAAUGAGUUUUUCCCUUUCAAUACUGUGUUGCAAACGUAGUUUCAUCCUUACAACUUCCUGUUGUCGAAAAAGCUCUUUAAGUGGAUCUGACAGUGACAACAGAGGAUUGAGCAUCA
B3: chrX:20249591:20249592:+_ENSMUSG00000001924_ENSMUST00000001989|mus_mus|FALSE|FALSE (ssRNA)
RNA: GGGAGUUCUACAGUCCGACGAUCCACCAGGAAGUACUUUUGCUUGCUCAGCUUCUCCUGAAAGUCUGACCCAAAUACAGCUACCUGCCCAUCGUAACGGUUCUGACGUGGGAGGCACUUCUCCUCUGUCAGAGCCUCUUUGUCCAACAGAGGAUUGAGCAUCA
B4: chr7:149068622:149068623:-_ENSMUSG00000025139_ENSMUST00000001950|mus_hu|mus_mus_mus_hu_False|1_1 (ssRNA)
RNA: GGGAGUUCUACAGUCCGACGAUCGUGAGGCCUCUGAGUGUGGCUUGUGGUCUGUCCUGGGUUAGAGUUGUUAAUAUCACGGAACAUACCAUCUAGAACGUUCCAGUCCCGCCUGACACCUUCAUUCCCAAUGGAGAAUCUGCUCAACAGAGGAUUGAGCAUCA
B5: chr11:54532201:54532202:-_ENSMUSG00000052298_ENSMUST00000064104|mus_hu|FALSE|FALSE (ssRNA)
RNA: GGGAGUUCUACAGUCCGACGAUCUAGGAUUUAAACAAACAUUUUAAUGAGAACACAAACCACUGACUCUGGCUUAACACCACACUCUAACAGAAAAGAAGAAACCUUUACAGAAAUAUUUGAAAUAUACAAAAUUCGUGCAAGCAACAGAGGAUUGAGCAUCA
B6: chr14:89343726:89343727:+_ENSG00000165533_ENST00000346301|hu_mus|FALSE|FALSE (ssRNA)
RNA: GGGAGUUCUACAGUCCGACGAUCGCACUCAGUGCGUUUUCUUCCCUGUGCGCUGGCCCUCCGUGAAGGCUUAUGUGGCCCAAGCACUGAUCAGAGCAUAGCAAAGUGCUGCUUCAGCUGCUUAAUUAAGUGCUGUGUGUCCACCAACAGAGGAUUGAGCAUCA
B7: 68531005_68534383_798_CDS_ENSG00000033178_ENST00000322244|human|control|control (ssRNA)
RNA: GGGAGUUCUACAGUCCGACGAUCUAUCACCGUUAUUUGUUGUAUAGAUCCAUUUAAACCUGUCAUUCCAUUAAUUUCUCGAAAUGUUAGGAAUUGUCCUGUCUCCAGUUUGUGAGGAUGAUUUUCAAGGCAAGUAACAAUGCCCAACAGAGGAUUGAGCAUCA
B8: chr22:42033747:42033748:+_ENSG00000196419_ENST00000405878|hu_hu|motif|central (ssRNA)
RNA: GGGAGUUCUACAGUCCGACGAUCCAGGUCUUCUAGCUUGCUGGAUUCCUCAAAGUGAACCCUGAGGUCCUCAUCCUCUGCGGUGCUGAUGAUAUCUCUGUAGAACAAGGAUAUGUCAAAGCCCCCAGGUUUCUUCAGGUGCAUCAACAGAGGAUUGAGCAUCA
B9: chr4:76721835:76721836:+_ENSG00000138768_ENST00000264904|hu_mus|hu_hu_hu_mus_True|78_108 (ssRNA)
RNA: GGGAGUUCUACAGUCCGACGAUCGUUGGCUGGGGUUUUCUGAGACGCUCUGGAAUAAACUCAUGUUUUGCUAAUAAAUCCUAGUUUCUCUAUGAAAUUCUCUUUGCCAAUCCUCUUCUCUAUUAGUUGCUUUAGUUUCUCUUUCAACAGAGGAUUGAGCAUCA
B10: chr8:40069188:40069189:+_ENSMUSG00000039530_ENSMUST00000167992|mus_mus|motif|central (ssRNA)
RNA: GGGAGUUCUACAGUCCGACGAUCCUUCUGUCCGCCCCCGAGCUGGAUGCAGAGCAGCAGCAGCAAGAGGAGGAAGGGAAAGCGGCCAGUAGGCAGGUAGCGCAACCGGCGGCCCGCCUGUCUCCGGCGUGAAGGAGCGGCCCUCAACAGAGGAUUGAGCAUCA
B11: chr3:179287964:179287965:+_ENSG00000136518_ENST00000429709|hu_hu|hu_hu_hu_mus_True|1_18 (ssRNA)
RNA: GGGAGUUCUACAGUCCGACGAUCCUUGAGUGGUGAGAUGGCCUCCAUGUUCUCCCUGGGCACGCGGAGGGCAUUGGUGUCUAUGUAGUAGGUGGGCCCGCCCUGCUUGCCUUUGUCGCCAUCUAUUUCCAUCAUUGUGCUUCCCAACAGAGGAUUGAGCAUCA
B12: chr1:94953452:94953453:+_ENSG00000117528_ENST00000370214|hu_hu|motif|central (ssRNA)
RNA: GGGAGUUCUACAGUCCGACGAUCUUCUGUAAUCCGAGCAGUAAAACCGGCCAAUCUAGUCAUUUCACGCCCAGCCAAAACGGUUCGACCCAGAGCUUGAGACAUUCGCAAAAGCAUUCUUCCACUUUGGUAGUAAUCCUCUAGCAACAGAGGAUUGAGCAUCA
B13: chr10:20037848:20037849:+_ENSMUSG00000037608_ENSMUST00000043881|mus_mus|FALSE|FALSE (ssRNA)
RNA: GGGAGUUCUACAGUCCGACGAUCUCAGUGAUGUCUUUGAGACACUACCAAGAUUCUUCUUGUAGAAAAUGUUAUGGGAAACUAAACUCUAAAUUCAAAUACCUGACACGCCGAAGCACGAUGUGCGUGCAGGGUUUACCUCCGCAACAGAGGAUUGAGCAUCA
B14: chr2:144966258:144966259:-_ENSG00000121964_ENST00000344850|hu_hu|motif|central (ssRNA)
RNA: GGGAGUUCUACAGUCCGACGAUCUGUCCGGGCUCUCCAAUGCCAUUUCUUUGCAGGAAGGGUAUAAACGACACAGUCUCCGGACUCUUCUUGAAGAAGAUCCACCAGCUGUUUAUGGGAGCCUCCAUAGAAUGCUUCAAUGAUCAACAGAGGAUUGAGCAUCA
B15: 43693971_43694091_1071_3pUTR_ENSMUSG00000078716_ENSMUST00000107866|mouse|control|control (ssRNA)
RNA: GGGAGUUCUACAGUCCGACGAUCAAGGCCAACUCCAGCUGGCAUACUGAGGCACCUCCACAGGCCACAGAGCUUGAGUUGUGUAGGGGUGGAGCCUUGGGACGUAGGCGCAGUGUCAGGGGACAGACAGAUGCCCCUCGACCCCAACAGAGGAUUGAGCAUCA
B16: chr13:56191178:56191179:-_ENSMUSG00000015937_ENSMUST00000016081|mus_hu|motif|central (ssRNA)
RNA: GGGAGUUCUACAGUCCGACGAUCUUUAAGGUCAAUGUCAGCAUUGGUAGGAUUGAUUAUGGCCUCCACCUCAAAGCCGGCGGAAUUACUGAUUUCACUGUGAAUAAGGUUCAGCUUCUGGCCAAGGAAGAGGCUCUUGGUGGACAACAGAGGAUUGAGCAUCA
B17: chr18:25268621:25268622:+_ENSMUSG00000034295_ENSMUST00000037097|mus_hu|FALSE|FALSE (ssRNA)
RNA: GGGAGUUCUACAGUCCGACGAUCGCUGAUGGAGGACAGGGUGAGGAGGAACUGCUCUGCACUGCCCAGGGGGAUUUCAGGGUUGGCCAGCUGAGCUUCCUGGAUUUUCUGCUUCUCCUCAUCGGUGGGAAUCAUCGUUAGAAUCAACAGAGGAUUGAGCAUCA
B18: chr3:9412954:9412955:+_ENSG00000134077_ENST00000452837|hu_mus|hu_hu_hu_mus_False|18_38 (ssRNA)
RNA: GGGAGUUCUACAGUCCGACGAUCGGUUGAUAUCUCUUCUUUGAUGGCUGGAUUUUCAUAAUAGUCCAAGAUAUGUGAAUCUGAAGUGCUGCUGGCAAACUCUUUUUUACCAUCUUUCUGAUCGAUUUUGUCUCCUUGUCCACACAACAGAGGAUUGAGCAUCA
B19: chr18:77180173:77180174:+_ENSMUSG00000090000_ENSMUST00000026487|mus_mus|motif|central (ssRNA)
RNA: GGGAGUUCUACAGUCCGACGAUCGAUAUAAACUGAACAACAGUAUUAUGAGAUGAGCCAAGAACACCACAAAGCUGGUCGGAGACAUAAGACAGACGAACAAACGAAAGCUACUUAGAAUCAACAACCUACCUACAGACAGAACAACAGAGGAUUGAGCAUCA
B20: chr9:57762402:57762403:+_ENSMUSG00000055720_ENSMUST00000163329|mus_mus|FALSE|FALSE (ssRNA)
RNA: GGGAGUUCUACAGUCCGACGAUCCCAAGAUUUUCGGAGAACAUGGACUGUGGAUCCAGGCUGAAUACCAUAGAAGUCAAGGGUCUGGUCAUCUUUUAGCUUCCGGCCACAGUAGAUCAAAUCGAUCAGCUCCGGGUCUGGAACCAACAGAGGAUUGAGCAUCA
B21: chr11:87793130:87793131:-_ENSMUSG00000020483_ENSMUST00000020775|mus_mus|FALSE|FALSE (ssRNA)
RNA: GGGAGUUCUACAGUCCGACGAUCAGAGCAUAGAUGUGGCAGGGUCUCAGUCACUGCACCAGAAAUGAGAGAUGAACAAAAACGAGACACUUCCAACUGGCCAGAGUCUGGGAGGGCAGGGAAACACAGAUCUGGACAUUCAUACAACAGAGGAUUGAGCAUCA
B22: chr2:202488911:202488912:-_ENSG00000155755_ENST00000286196|hu_mus|hu_hu_hu_mus_False|38_88 (ssRNA)
RNA: GGGAGUUCUACAGUCCGACGAUCAUUGAAACAUUUUUCAUAAUCUCAGAGAUGUUUUCAGCAUUAUGUAACAAAAGCUCAAUUGUAAAUACAUGUAUAUACAUCUUAUACACUUAAAAACACGAGUGGGGAGCGCAGGCGCCACAACAGAGGAUUGAGCAUCA

Target: T1, UNK ZnF1-3
Experiment: nsRBNS (natural sequence RNA bind-n-seq); RBNS binding buffer (assumed for nsRBNS): 25 mM Tris pH 7.5, 150 mM KCl, 3 mM MgCl2, 0.01% Triton X-100, 500 ug/ml BSA, 20 U/ml SUPERase-In, 4 C; UNK is unkempt and MSI1 is Musashi-1; names of the RNAs are library labels; protein concentration not given here; high values mean tight binding

Row | Binder | binding signal
1 | B1 | 0.896 enrichment R
2 | B2 | 0.443 enrichment R
3 | B3 | 0.681 enrichment R
4 | B4 | 0.78 enrichment R
5 | B5 | 1.72 enrichment R
6 | B6 | 0.845 enrichment R
7 | B7 | 0.918 enrichment R
8 | B8 | 0.66 enrichment R
9 | B9 | 0.402 enrichment R
10 | B10 | 0.867 enrichment R
11 | B11 | 0.529 enrichment R
12 | B12 | 0.959 enrichment R
13 | B13 | 0.728 enrichment R
14 | B14 | 0.77 enrichment R
15 | B15 | 1.58 enrichment R
16 | B16 | 1.03 enrichment R
17 | B17 | 0.876 enrichment R
18 | B18 | 0.506 enrichment R
19 | B19 | 2.02 enrichment R
20 | B20 | 0.867 enrichment R
21 | B21 | 1.91 enrichment R
22 | B22 | 0.712 enrichment R
